The chains are these.
B1: Caulobacter ParB omega fusion; a variant is named by its letters at X, in order, B8GW30 (parent)
chain: MESVVVGEPGMSEGRRGLGRGLSALLGEVDAAPAQAPGEQLGGSREAPIEILQRNPDQPRRTFREEDLEDLSNSIREKGVLQPILVRPSPDTAGEYQIVAGERAWRAAQRAGLKTVPIMVRELDDLAVLEIGIIENVQRADLNVLEEALSYKVLMEKFERTQENIAQTIGKSXSHVANXMRLLXLPDEVQSYLVSGELTAXHARAIAAAADPVALAKQIIEGGLSVRETEALARKAPNLSAGKSKGGRPPRVKDTDTQALESDLSSVLGLDVSIDHRGSTGTLTITYATLEQLDDLCNRLTRGI

In all, about 81,000 sequences were measured (“one-hybrid fitness for binding parS DNA”: median about -0.17, highest 2% from about 0.51 on). The list shows a part of the results.

The variants in this assay derive from B1. The assay is described as follows: one-hybrid fitness for binding parS DNA (scaled: cognate 1, non-cognate 0); higher = stronger binding. Particulars: with parS DNA site. The procedure, abridged: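 Pre- and post-selection plasmids were Illumina-sequenced, three replicate libraries were pooled, and any variant with under 10 reads was removed. The libraries were Caulobacter ParB with four specificity codons randomised, selected in E. coli USO through a HIS3 reporter whose site is 19 bp from the promoter. Cells grew 48 hours at 37°C on M9 without histidine, with 0.1 mM IPTG and 5 mM 3-AT. Fitness is the log change in variant-to-wild-type read ratio, rescaled against cognate and non-cognate.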
In the case of PMRV, the “one-hybrid fitness for binding parS DNA” value was at most 0.2.
In the case of RAVY, the “one-hybrid fitness for binding parS DNA” value turned out to be 0.412.
Then RHER, with at most 0.2; and PCTG, with at most 0.2.
For the variant QNPE, the “one-hybrid fitness for binding parS DNA” value is at most 0.2.
To HATC belongs at most 0.2; to LGRC, at most 0.2.
To HQEL belongs at most 0.2; to VQRK, at most 0.2.
Turning to ENSK, the “one-hybrid fitness for binding parS DNA” value was at most 0.2.
Then MALG, with at most 0.2; and GLCW, with at most 0.2; and RKSY, with 0.366.
Consider ISCI, for which the “one-hybrid fitness for binding parS DNA” value is at most 0.2.
Then YGPV, with at most 0.2; and NVTV, with at most 0.2.
Then RLSC, with 0.98; and RTGN, with 0.44.
To RGLW belongs at most 0.2.
With QPIF, the “one-hybrid fitness for binding parS DNA” value was at most 0.2.
Then TVSV, with at most 0.2.
For KVWR, the “one-hybrid fitness for binding parS DNA” value is at most 0.2.
Turning to RIDH, the “one-hybrid fitness for binding parS DNA” value came to 0.231.
As for AFAH, the “one-hybrid fitness for binding parS DNA” value is at most 0.2.
As to EYRF, the “one-hybrid fitness for binding parS DNA” value was at most 0.2.
To HPSG belongs at most 0.2; to SRPH, at most 0.2; to KAMG, at most 0.2.
To CRHS belongs at most 0.2; to SPVM, at most 0.2.
Take HQTI: the “one-hybrid fitness for binding parS DNA” value is at most 0.2.
To YRGR belongs at most 0.2; to CSTL, at most 0.2.
To TTDC belongs at most 0.2; to DHGT, at most 0.2; to FSIV, at most 0.2.
For the variant LWAV, the “one-hybrid fitness for binding parS DNA” value was at most 0.2.
Regarding IWRI, the “one-hybrid fitness for binding parS DNA” value is at most 0.2.
As for ASKG, the “one-hybrid fitness for binding parS DNA” value is at most 0.2.
Then HHPW, with at most 0.2; and NQRT, with at most 0.2; and PQSA, with at most 0.2.
On to AGIK, for which the “one-hybrid fitness for binding parS DNA” value is at most 0.2.
Then PNWL, with at most 0.2; and GKCN, with at most 0.2.
Then WIAT, with at most 0.2.
Then DFTV, with at most 0.2.
For QQMT, the “one-hybrid fitness for binding parS DNA” value was at most 0.2.
Then ASDF, with at most 0.2; and QMIF, with at most 0.2; and GQGI, with at most 0.2.
As to RSVS, the “one-hybrid fitness for binding parS DNA” value is 0.946.
To NASF belongs at most 0.2.
With LRTI, the “one-hybrid fitness for binding parS DNA” value was at most 0.2.
Turning to ECLR, the “one-hybrid fitness for binding parS DNA” value is at most 0.2.
Then IPMV, with at most 0.2; and DKEG, with at most 0.2; and ALKA, with at most 0.2.
Turning to AQIG, the “one-hybrid fitness for binding parS DNA” value was at most 0.2.
To MMKS belongs at most 0.2; to KRYV, at most 0.2.
As to YIVC, the “one-hybrid fitness for binding parS DNA” value was at most 0.2.
For the variant FGSR, the “one-hybrid fitness for binding parS DNA” value is at most 0.2.
To VEPI belongs at most 0.2; to PGHC, at most 0.2.
Then TLYS, with at most 0.2; and HCWL, with at most 0.2; and MGTR, with at most 0.2.
To RLPR belongs at most 0.2; to KPSS, at most 0.2.
In the case of LDTS, the “one-hybrid fitness for binding parS DNA” value was at most 0.2.
For GWRG, the “one-hybrid fitness for binding parS DNA” value is at most 0.2.
To KRAD belongs at most 0.2; to KAAC, at most 0.2.
Turning to VRLV, the “one-hybrid fitness for binding parS DNA” value is at most 0.2.
Then EQKG, with at most 0.2; and RRFI, with at most 0.2.
To TSID belongs at most 0.2; to SSRI, at most 0.2.
As for SRYL, the “one-hybrid fitness for binding parS DNA” value was at most 0.2.
To RRKG belongs 0.708; to QMTL, at most 0.2; to AFNP, at most 0.2.
On to QKPG, for which the “one-hybrid fitness for binding parS DNA” value was at most 0.2.
Then TRPG, with at most 0.2.
On to GHSE, for which the “one-hybrid fitness for binding parS DNA” value was at most 0.2.
To NTMT belongs at most 0.2.
With EQES, the “one-hybrid fitness for binding parS DNA” value was at most 0.2.
Regarding LLSD, the “one-hybrid fitness for binding parS DNA” value was at most 0.2.
Turning to QVRN, the “one-hybrid fitness for binding parS DNA” value was at most 0.2.
Consider TTRG, for which the “one-hybrid fitness for binding parS DNA” value was at most 0.2.
Then TTRQ, with at most 0.2.
Then RFWM, with at most 0.2; and GGNL, with at most 0.2.
Then WQPT, with at most 0.2; and WHPF, with at most 0.2; and CMKR, with at most 0.2.
Regarding ENAM, the “one-hybrid fitness for binding parS DNA” value is at most 0.2.

These data come from a collection of fitness landscapes (doi:10.1016/j.celrep.2020.107928).
